Biological target: human Clec9A on HL116-hClec9A cells (human, UniProt Q6UXN8 1-241)
Experiment: cell-based or functional assay

Sequence of UniProt Q6UXN8 (Q6UXN8 whole entry): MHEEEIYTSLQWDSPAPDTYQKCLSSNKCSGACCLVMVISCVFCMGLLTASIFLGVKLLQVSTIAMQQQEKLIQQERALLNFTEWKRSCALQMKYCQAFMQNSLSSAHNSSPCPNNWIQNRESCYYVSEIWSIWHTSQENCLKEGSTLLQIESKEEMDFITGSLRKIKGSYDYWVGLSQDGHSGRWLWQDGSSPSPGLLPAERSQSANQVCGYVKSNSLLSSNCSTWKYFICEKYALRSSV

B1: R1CHCL50-20*GGS-Fc3 + Fc4-20*GGS-IFNa1 (Fc fusion)
chain 1: QVQLVESGGGLVHPGGSLRLSCAASGSFSSINVMGWYRQAPGKERELVARITNLGLPNYADSVTGRFTISRDNAKNTVYLQMNSLKPEDTAVYYCYLVALKAEYWGQGTQVTVSSGGSGGSGGSGGSGGSGGSGGSGGSGGSGGSGGSGGSGGSGGSGGSGGSGGSGGSGGSGGSDKTHTCPPCPAPEAAGGPSVFLFPPKPKDTLMISRTPEVTCVVVDVSHEDPEVKFNWYVDGVEVHNAKTKPREEQYNSTYRVVSVLTVLHQDWLNGKEYKCQVSNKALPAPIEKTISKAKGQPREPQVCTLPPSRDELTKNQVSLSCAVKGFYPSDIAVEWESNGQPENNYKTTPPVLDSDGSFFLVSKLTVDKSRWQQGNVFSCSVMHEALHNHYTQKSLSLSPGK
chain 2: [letters of human IgG1 Fc with changes omitted]GGSGGSGGSGGSGGSGGSGGSGGSGGSGGSGGSGGSGGSGGSGGSGGSGGSGGSGGSGGSCDLPETHSLDNRRTLMLLAQMSRISPSSCLMDRHDFGFPQEEFDGNQFQKAPAISVLHELIQQIFNLFTTKDSSAAWDEDLLDKFCTELYQQLNDLEACVMQEERVGETPLMNADSILAVKKYFRRITLYLTEKKYSPCAWEVVRAEIMRSLSLSTNLQERLRRKE
For B1, the “EC50, luciferase reporter on HL116-hClec9A cells” value was 0.3 ng/mL.
